Test results: the RNAGym collection of RNA variant scans (doi:10.1093/nar/gkz1192)
Read counts are not given, so values of variants with three or more changes are uncertain.

B1: CPEB3 Ribozyme (parent)
chain: UAACAGGGGGCCACAGCAGAAGCGUUCACGUCGCAGCCCCUGUCAGAUUCUGGUGAAUCUGCGAAUUCUGCUGUAUAUCUC

Variants of: B1
Assay: self-cleavage, relative activity (ratio to wild type); higher = more cleavage; in vitro, sequencing
How it was run: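 Libraries of CPEB3 self-cleaving ribozyme mutants came from rounds of error-prone PCR and carried barcodes, which DNA sequencing matched to variants. In vitro transcription used T7 RNA polymerase at 37°C for 5 hours, with a further 15 min in DNase I before EDTA stopped the reaction; the ribozymes cleaved during both steps. The RNA was reverse transcribed with template switching and sequenced on Illumina. Relative activity is the cleaved/total read fraction of a variant divided by that of the unmutated ribozyme, averaged over three batches with at least 5 reads.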
For UAGCUGGGGGCCACAGCAGAAGCGUUCACGUCGCAGCCGCUGUCAGAUUCUGGUGAAUCUGCGAAUCCUGCUGCAUAUCUC [A3G A5U C39G U67C U74C], the self-cleavage was 0.23. Work on UAGCAGGGGGCCGCAGCAGAAGCGUUCACGUCGCAGCCCCUGCCAGAUUCUGGUGAAUCUGCGAAUUCUGCUGUAUAUCUC [A3G A13G U43C] yielded a self-cleavage of 0.48. In the case of UAGCAGGGGGCCGCAGCAGAAGCGUUCACGUCGCAGCCCCCGUCAGAUUCAGGUGAAUCUGCGAUUUCUGCUGUAAGUCUC [A3G A13G U41C U51A A65U U76A A77G], the self-cleavage is reported as 0.3. UAGCUGGGGGCCACAGCAGAAGCGAUCACGUCGCAGCCCCCGUAAGAUUCUGGCGAAUCUGCGAAUUGUGCUGUAUAUCUC [A3G A5U U25A U41C C44A U54C C68G] showed a self-cleavage of 0.29. With UAGCUGGGGGCCACAGCAGAAGCGUUCACCUCGCAGCCCCUGUCAGAUUCUGGUGAAUCUGCGAAUUCUGCUGUAUAUCUC [A3G A5U G30C] the self-cleavage was 0.44. UAGCAGGGGGCCGCAGCAGAAGCGUUCACGUCGUAGCCCCUGUCAGAUUCCGGUGAAUCUGCGAAUUCUGCUGUAUAUCUC [A3G A13G C34U U51C] showed a self-cleavage of 0.33. UAGCAGGGGGCCGCAGAAGAAGCGUUCACGUCGCAGCCUCUGUCAGAUUCUGGUGAAUCUGCGAAUUCUGCUGUAUAUCUC [A3G A13G C17A C39U] showed a self-cleavage of 0.26. With UAGCUGUGGGCCACAGCGGAAGCGUUCACGUCGCAGCCCCUGUCAGAUUCUGGCGAAACUGCGAAUUCUGCUGUAUUUCUC [A3G A5U G7U A18G U54C U58A A77U] the self-cleavage was 0.08. For UAGCAGGGGGCCGCAGCAGAAGCGUUCACGUCGAAGCCCCUGUCAGAUUCUGGUGAAUCUGCGGAUUCUGCUGUAUAUCUC [A3G A13G C34A A64G], the self-cleavage was 0.11. In the case of UAGCAGGGGGCCGCAGCAGAAGCGUUCACGUCGCAGCCCUUGUCAGAUUCUGGUGAAUCUGCGAAUUCUGCUGUGUAUCUC [A3G A13G C40U A75G], the self-cleavage is reported as 0.61. Work on UAGCAGGGGGCCGCAGCGGAAGCGUUCAGGUCGCAGCCCCUGUCAGAUUCUGGUGAAUCUGCGAAUUCUGCUGUAUAUCUC [A3G A13G A18G C29G] yielded a self-cleavage of 0.3. Work on UAGCAGGGGGCCGCAGCAGAUGCGUUCACGUCGCAGCCCCUGUCCGAUUCUGGUGAAUCUGCGAAUUCUGCCGUAUAUCUC [A3G A13G A21U A45C U72C] yielded a self-cleavage of 0.08. For UAGCAGGGGGCCCCAGCAGGAACGCUCACGUCGCAGCCCCUGUCAGAUUCUGGUGAAUCUGCGAAUUCUGCUGAAUAUCUC [A3G A13C A20G G22A U25C U74A], the self-cleavage was 0.22. UAGCAGGGGGCCGUACCAGAAGCGUCCACGUCGCAGCCCCUGUCAGAUUCUGGUGAAUCUGCGAAUUCUGCUGUCUACCUC [A3G A13G C14U G16C U26C A75C U78C] showed a self-cleavage of 0.47. UAGCAGGGGGCCGCAGCAGAAGCGAUCACGUCGCAGCCCCUGUCAGAUUCUGGAGAAUCUGCGAAUUCUGCUGUAUAUCUC [A3G A13G U25A U54A] gave a self-cleavage of 0.72. For UAGCUGGGGGCCACAGCAGAAGCGUUCACGUCGCAGCCCCAGUCAGAUUCUGGCGGAUCAGCGAAUUCUGCUGUAUAUCUC [A3G A5U U41A U54C A56G U60A], the self-cleavage was 0.1. In the case of UAGCAGGGGGCCGCAGCAGGAGCGUUCACGUCGCAGCCCCUGACAGAUUCUGGUGAAUCUGCGAAUUCUGCUGUAUAUCUC [A3G A13G A20G U43A], the self-cleavage is reported as 0.9. UAGCAGGGGGCCGCAGCAGAAGCGUUCACGUCGCAGCCCCUGUCAGAUUCUGGUGGAUCUGCGAAUUCUGCCGUAUAUCUC [A3G A13G A56G U72C] gave a self-cleavage of 0.91. UAGCAGGGGGCCUCGGCAGAAGCGUUCACGUUGCGGCCUCUGUCAGAUUCUGGUGAAUCCGCGAAUUCUGCUGUAUAUCUC [A3G A13U A15G C32U A35G C39U U60C] showed a self-cleavage of 0.3. Work on UAGCAGGGGGCCGCAGCAGAAGCGUUCACGUCGCAGCCCCUGUCAGAUUCUGGUGAAUCUGCGUAUUCCGCUGUAUAUCUC [A3G A13G A64U U69C] yielded a self-cleavage of 0.37. For UAGCUGGGGGCCACAGCAGAAGCGUUCACGUCGCAGCCCCUGUCAGGUCCUGGUGCAUCUGCGAAUUCUGCUGUAUAUCUC [A3G A5U A47G U49C A56C], the self-cleavage was 0.58. In the case of UAGCAGGGGGCCUCGGCAGAAGCGCUCACGCCGCAGCCCCUGUCAGAUUCAGGAGAAUCUGCGAAUUCUGCUGUAUAUCUC [A3G A13U A15G U25C U31C U51A U54A], the self-cleavage is reported as 0. UAGCAGGGGGCCGAAGCAGAAGCGUUCACGUCGCAGCCCCUGUCAGAUUCUGGUGAAUCCGCGAAUUCUGCUGUAUAUCUC [A3G A13G C14A U60C] gave a self-cleavage of 0.24. UAGCAGGGGGCCCCAGCAGAAGCGUUCACGUCGCAGCCCCUGUCAGAUUCAGGUGAAUCUGCGAAUUCUGCUGUAUAUCUC [A3G A13C U51A] gave a self-cleavage of 0.83. In the case of UAGCAGGGGGCCGCAGCAGAAGCGCUCACGUCGCAGCCCCUGUCUGAUUCCGGCGAAUCUGCGAAUUCUGCUGUAUAUCUC [A3G A13G U25C A45U U51C U54C], the self-cleavage is reported as 0. Variant UAGCUGGGGGCCACAGCAGAAGCGUUCACGUUGCAGCCCCCGUCAGAUUCUGGUGAUUCUGCGAAUUCCGCUGUAUAUCGC [A3G A5U C32U U41C A57U U69C U80G] has a self-cleavage of 0.07. For UAGCAGGGGGCCGCAGCAGAAGCGUUCACGUCGCAGCCCCUGUCAGGUUCUGGUGAAUCUGCGAAUUCUGCUGUAUAUCUC [A3G A13G A47G], the self-cleavage was 0.89. With UAGCAGGGGGCCGCAGCAGAAGCGUUCACGUCGCUGCCCCUGUCAGAUUCUGGUGAAACUGCGAAUUCUGCUGUAUAUCUC [A3G A13G A35U U58A] the self-cleavage was 0.36. UAGCAGGGGGCCGCAGCAGAAGCGUUCACGUCGCGGCCCCUGUCGGAUUCUGGUGAGUCUGCGAAUUCUGCCGUGUAUCUC [A3G A13G A35G A45G A57G U72C A75G] showed a self-cleavage of 0.42. Variant UAGCAGGGGGCCGCAGCAGAAGCGUCCAAGUCGCAGCCCCUGUCAGAUUCUGGUAAAUCAGCGAAUUCUGCAGUAUAUCUC [A3G A13G U26C C29A G55A U60A U72A] has a self-cleavage of 0.18. With UAGCAGGGGGCCGCAGCAGAAGCGUUCACGUCGCAGCCCCUGUCUGAUUCUGGUGAAUCUGCGGACUCUGCUGUACAUCUC [A3G A13G A45U A64G U66C U76C] the self-cleavage was 0.41. In the case of UAGCUGGGGGCCACAGCAGAAGCGUUCACGUCGCAGCCCCUGUCAGAUCCUGGUGAAUCUGCGAAUUCUGCUGUAUAUCUC [A3G A5U U49C], the self-cleavage is reported as 0.66. With UAGCUGGGGGCCACAGCAGAAGCGUUCACGCCGCAGCCCCUGUCAGAUUCUGGUGAAUCUGCGAAUUCUGCUGUAUAUCUC [A3G A5U U31C] the self-cleavage was 1.14. UAGCAGGGGGCCGCAGCAGAAGCGUUCACGUCGCAGCCCCUGUCAGAUUCUGGCGAAUUUGCGAAUUCUGCUGUAUAUCUC [A3G A13G U54C C59U] showed a self-cleavage of 0.61.
